In the supplement of paper PMC11369174, “Proteome-scale characterisation of motif-based interactome rewiring by disease mutations” (Molecular Systems Biology, 2024):
The list shows a part of the results. These are enrichments in a pooled selection; single values are uncertain.

Molecular target: T1, GGA1_VHS__Q9UJY5_1_157
T1 chain: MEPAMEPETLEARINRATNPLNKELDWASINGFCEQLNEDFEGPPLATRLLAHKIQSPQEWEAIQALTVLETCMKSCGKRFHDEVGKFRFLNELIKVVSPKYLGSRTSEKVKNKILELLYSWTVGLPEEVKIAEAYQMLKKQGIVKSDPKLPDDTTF
Assay: mean normalised NGS count of phage-displayed peptide after selection on bait (% of reads); baits are purified protein domains named by gene / domain / UniProt id / residues; peptides come from disordered regions of human proteins; higher = stronger enrichment / binding
Conditions: replicate selections in which the peptide was seen: 3

Binder | mean normalised NGS count
HQDKRDDVLIGLKSAA [COQ2 253-268 mut Q96H96.T267A] | 0.0162
KLASNLGVEDENLLAG [POLR3B 513-528 mut Q9NW08.V523E] | 0.0142

Same assay, conditions: replicate selections in which the peptide was seen: 4

Binder | mean normalised NGS count
QQDEEMLELPAPAKVA [MLH1 426-441 mut P40692.E439K] | 0.795
HQDKRDDVLIGLKSTA [COQ2 253-268 wt] | 0.551

Molecular target: T2, GGA3_VHS__Q9NZ52_1_166
T2 chain: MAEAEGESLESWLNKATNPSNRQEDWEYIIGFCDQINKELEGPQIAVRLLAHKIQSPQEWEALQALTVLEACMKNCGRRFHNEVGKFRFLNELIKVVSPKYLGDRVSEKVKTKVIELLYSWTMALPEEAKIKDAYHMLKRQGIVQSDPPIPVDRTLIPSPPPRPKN
Assay: as above
Conditions: replicate selections in which the peptide was seen: 6

Binder | mean normalised NGS count
QQDEEMLELPAPAKVA [MLH1 426-441 mut P40692.E439K] | 5.71
QQDEEMLELPAPAEVT [MLH1 426-441 mut P40692.A441T] | 1.27
QQDEEMLQLPAPAEVA [MLH1 426-441 mut P40692.E433Q] | 13.9

Molecular target: T1, GGA1_VHS__Q9UJY5_1_157
Assay: as above
Conditions: replicate selections in which the peptide was seen: 5

Binder | mean normalised NGS count
SHGPDAKLLAVGEDVA [NTRK1 603-618 mut P04629.G613V] | 0.559
DAKLLAVGEDVAPGPL [NTRK1 607-622 mut P04629.G613V] | 0.429
LSPFPSQAMDDLMLSP [TP53 32-47 mut P04637.L35F] | 1.17
LSPLPSQAMDDLMLSP [TP53 32-47 wt] | 1.7
LSTLPSQAMDDLMLSP [TP53 32-47 mut P04637.P34T] | 3.77
QQELDDLLVDLDHQRQ [MYH9 1419-1434 wt] | 2.65
DDLLVDLDHQRQSAAN [MYH9 1423-1438 wt] | 3.27
TYASVGDQELLQITPQ [BRCA1 195-210 wt] | 2.81
QQDEEMLELPAPAEVT [MLH1 426-441 mut P40692.A441T] | 0.65
QQDEEMLQLPAPAEVA [MLH1 426-441 mut P40692.E433Q] | 0.213
DINILSLTDEEPSTSG [SOS1 182-197 wt] | 0.321
GGRWISDSHEDTGILD [MYBPC3 279-294 mut Q14896.R282W] | 1.85
AWNIAGTSENDDQLLF [DPF2 329-344 mut Q92785.C330W] | 1.53
AKASQEADSVLILQDR [TWNK 577-592 mut Q96RR1.N585S] | 0.423
IFALAVEDIETDTELL [PRDM5 105-120 mut Q9NQX1.Y107C] | 53.8
KLASNLGVEDVNLLRG [POLR3B 513-528 mut Q9NW08.C527R] | 1.97
NLGVEDVNLLRGEELS [POLR3B 517-532 mut Q9NW08.C527R] | 5.4

Molecular target: T2, GGA3_VHS__Q9NZ52_1_166
Assay: as above
Conditions: replicate selections in which the peptide was seen: 4

Binder | mean normalised NGS count
LSPFPSQAMDDLMLSP [TP53 32-47 mut P04637.L35F] | 0.255
RSDQIYWYWPEDNVAE [TTN 2120-2135 mut Q8WZ42.R2123Q] | 0.275

Same assay, conditions: replicate selections in which the peptide was seen: 3

Binder | mean normalised NGS count
LSPLPSQAMDDLMLSP [TP53 32-47 wt] | 0.0515
DDLLVDLDHQRQSAAN [MYH9 1423-1438 wt] | 0.0257
YAWNADTDLVSWLSPH [PQBP1 64-79 mut O60828.Y65C] | 0.0266

Same assay, conditions: replicate selections in which the peptide was seen: 5

Binder | mean normalised NGS count
LSTLPSQAMDDLMLSP [TP53 32-47 mut P04637.P34T] | 0.494
QQELDDLLVDLDHQRQ [MYH9 1419-1434 wt] | 0.391
GGRWISDSHEDTGILD [MYBPC3 279-294 mut Q14896.R282W] | 0.318
AWNIAGTSENDDQLLF [DPF2 329-344 mut Q92785.C330W] | 0.169
YYWNADTDLVSWLSPH [PQBP1 64-79 wt] | 18.6
LLQVDTFKGWMDIMYA [SCN1A 1425-1440 mut P35498.A1429D] | 8.05
LLQVDTFKGWMDIMYA [SCN4A 1425-1440 mut P35498.A1429D] | 8.05
LLQVDTFKGWMDIMYA [SCN5A 1425-1440 mut P35498.A1429D] | 8.05
LLQVDTFKGWMDIMYA [SCN2A 1425-1440 mut P35498.A1429D] | 8.05
LLQVDTFKGWMDIMYA [SCN3A 1425-1440 mut P35498.A1429D] | 8.05
LLQVDTFKGWMDIMYA [SCN8A 1425-1440 mut P35498.A1429D] | 8.05
LLQVDTFKGWMDIMYA [SCN10A 1425-1440 mut P35498.A1429D] | 8.05

Same assay, conditions: replicate selections in which the peptide was seen: 2

Binder | mean normalised NGS count
TYASVGDQELLQITPQ [BRCA1 195-210 wt] | 0.0413
EVQPRNWLLFAAHATN [MPC1 72-87 mut Q9Y5U8.K72E] | 0.026

Molecular target: T3, PDZK1_PDZ_2_Q5T2W1_132_224
T3 chain: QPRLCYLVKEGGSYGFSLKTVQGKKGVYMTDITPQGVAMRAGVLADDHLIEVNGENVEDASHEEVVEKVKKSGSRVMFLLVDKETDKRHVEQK
Assay: as above
Conditions: replicate selections in which the peptide was seen: 6

Binder | mean normalised NGS count
YYWNADTDLVSWLSPH [PQBP1 64-79 wt] | 50.5

Molecular target: T4, GRAP2_SH3_2_O75791_274_329
T4 chain: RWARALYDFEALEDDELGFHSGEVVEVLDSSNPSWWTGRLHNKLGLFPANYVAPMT
Assay: as above
Conditions: replicate selections in which the peptide was seen: 2

Binder | mean normalised NGS count
QLGMRMQHNLEQQIQA [SPTAN1 2299-2314 wt] | 2.57

Same assay, conditions: replicate selections in which the peptide was seen: 4

Binder | mean normalised NGS count
PVVDRFLKPGALSNSE [STAMBP 231-246 mut O95630.S236F] | 0.0206
LDTALSKIGEKSLFPK [HMBS 64-79 mut P08397.T78P] | 17.4
QPIDYSLKYPTDIPSS [APC 1175-1190 mut P25054.A1184P] | 0.0642
APPSYDRVTKPVVEKH [SCN1A 1982-1997 mut P35498.I1993V] | 0.0199

Same assay, conditions: replicate selections in which the peptide was seen: 5

Binder | mean normalised NGS count
TTVRPAKPPVVDRSLK [STAMBP 223-238 wt] | 0.0554
PAKPPVVDRSLKPGAL [STAMBP 227-242 wt] | 0.122
PEPVRASKPAPPPQAL [SPEG 2220-2235 wt] | 0.126
PPPPLPPREPFAPSLG [CTNND2 220-235 mut Q9UQB3.P224L] | 0.103

Molecular target: T5, PIK3R1_SH3_1_P27986_6_78
T5 chain: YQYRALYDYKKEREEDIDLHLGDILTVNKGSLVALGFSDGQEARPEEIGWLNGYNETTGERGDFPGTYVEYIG
Assay: as above
Conditions: replicate selections in which the peptide was seen: 7

Binder | mean normalised NGS count
PEPVRASKPAPPPQAL [SPEG 2220-2235 wt] | 0.206

Molecular target: Intersectin-1_SH3_1_Q15811_740_806
Assay: as above
Conditions: replicate selections in which the peptide was seen: 6

Binder | mean normalised NGS count
PPPPLPPREPFAPSLG [CTNND2 220-235 mut Q9UQB3.P224L] | 80.9

Molecular target: Intersectin-1_SH3_3_Q15811_1002_1060
Assay: as above
Conditions: replicate selections in which the peptide was seen: 6

Binder | mean normalised NGS count
PPPPLPPREPFAPSLG [CTNND2 220-235 mut Q9UQB3.P224L] | 95.7

Molecular target: Src_SH3__P12931_87_144
Assay: as above
Conditions: replicate selections in which the peptide was seen: 6

Binder | mean normalised NGS count
PPPPLPPREPFAPSLG [CTNND2 220-235 mut Q9UQB3.P224L] | 70.5

Molecular target: T4, GRAP2_SH3_2_O75791_274_329
Assay: as above
Conditions: replicate selections in which the peptide was seen: 6

Binder | mean normalised NGS count
TTVRPAKPPVVDRYLK [STAMBP 223-238 mut O95630.S236Y] | 5.33
PAKPPVVDRFLKPGAL [STAMBP 227-242 mut O95630.S236F] | 3.15
PVVDRSLKPGALSNSE [STAMBP 231-246 wt] | 0.0214
STAAAPPSYDRVTKPI [SCN1A 1978-1993 wt] | 68.1
STAAAPPSYDRVTKPV [SCN1A 1978-1993 mut P35498.I1993V] | 1.17
PEPVRASKPAPPPEAL [SPEG 2220-2235 mut Q15772.Q2233E] | 1.38

Molecular target: Intersectin-1_SH3_2_Q15811_913_971
Assay: as above
Conditions: replicate selections in which the peptide was seen: 3

Binder | mean normalised NGS count
STAAAPPSYDRVTKPI [SCN1A 1978-1993 wt] | 1.05

Molecular target: T6, IRS2_PTB__Q9Y4H2_188_304
T6 chain: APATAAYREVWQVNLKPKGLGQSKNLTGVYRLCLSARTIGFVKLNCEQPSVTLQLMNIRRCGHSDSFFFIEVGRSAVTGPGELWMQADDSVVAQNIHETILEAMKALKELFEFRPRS
Assay: as above
Conditions: replicate selections in which the peptide was seen: 5

Binder | mean normalised NGS count
LFQITTFAGWDGLLAP [SCN1A 1717-1732 mut P35498.S1723F] | 47.5
LFQITTFAGWDGLLAP [SCN5A 1717-1732 mut P35498.S1723F] | 47.5
LFQITTFAGWDGLLAP [SCN9A 1717-1732 mut P35498.S1723F] | 47.5
LFQITTFAGWDGLLAP [SCN2A 1717-1732 mut P35498.S1723F] | 47.5
LFQITTFAGWDGLLAP [SCN3A 1717-1732 mut P35498.S1723F] | 47.5
